Source: PubChem BioAssay AID488969 (Vanderbilt High Throughput Screening Facility, 2010)
The full ranking holds about 110,000 compounds; the median of “z-score” is about -0.1, and the highest 2% start at about 2. The list shows a part of the results. Activity calls are given as the source filed them.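 How the source made its calls: active means z-score in the third read window above 3 or below -3; inactive means the rest.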

Target: Metabotropic glutamate receptor 8 (Rattus norvegicus) (UniProt P70579)
UniProt P70579, sequence (P70579 whole entry, looked up): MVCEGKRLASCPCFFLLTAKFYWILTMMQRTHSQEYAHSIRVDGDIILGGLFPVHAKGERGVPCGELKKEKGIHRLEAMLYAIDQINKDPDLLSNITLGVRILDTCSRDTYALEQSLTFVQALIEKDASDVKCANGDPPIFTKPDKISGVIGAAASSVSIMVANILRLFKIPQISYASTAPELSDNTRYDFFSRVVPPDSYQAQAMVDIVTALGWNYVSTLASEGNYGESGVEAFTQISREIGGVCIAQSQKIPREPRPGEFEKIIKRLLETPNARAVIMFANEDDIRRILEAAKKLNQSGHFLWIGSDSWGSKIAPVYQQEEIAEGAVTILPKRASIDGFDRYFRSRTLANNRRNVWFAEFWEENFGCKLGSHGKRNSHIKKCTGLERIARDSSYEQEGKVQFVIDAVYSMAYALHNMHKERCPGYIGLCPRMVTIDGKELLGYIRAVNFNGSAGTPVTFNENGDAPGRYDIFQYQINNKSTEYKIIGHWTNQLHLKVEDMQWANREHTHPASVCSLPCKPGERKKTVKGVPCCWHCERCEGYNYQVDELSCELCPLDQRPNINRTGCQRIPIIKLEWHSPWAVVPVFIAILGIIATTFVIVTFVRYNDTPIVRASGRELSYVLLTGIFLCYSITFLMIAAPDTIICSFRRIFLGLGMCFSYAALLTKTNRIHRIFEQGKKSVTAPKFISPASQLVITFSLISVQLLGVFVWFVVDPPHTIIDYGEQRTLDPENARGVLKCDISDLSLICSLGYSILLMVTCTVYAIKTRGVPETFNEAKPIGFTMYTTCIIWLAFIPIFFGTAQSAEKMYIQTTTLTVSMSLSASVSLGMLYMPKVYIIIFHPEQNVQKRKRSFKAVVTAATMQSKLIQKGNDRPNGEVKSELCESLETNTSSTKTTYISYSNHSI
Assay: rat mGluR8 modulators via GIRK flux, primary screen, cell-based, thallium flux, HTS (AID 488969)
Settings: HEK293 rat mGluR8, GIRK (G protein-gated inwardly rectifying potassium channel) thallium flux, FluoZin2; at 10 µM; stronger effect = higher value; submaximal glutamate (EC20) added with thallium

Structure (SMILES) | z-score
O=C(NC(NCc1ccccn1)(C(F)(F)F)C(F)(F)F)c1ccco1 | -0.08
O=C(CSc1nnc(-c2ccc(F)cc2)c2ccccc12)Nc1ccccc1Cl | -0.422
Clc1ccc(CSc2nnc(CN3CCOCC3)n2-c2ccccc2)cc1Cl | 0.963
COC(=O)CN(c1nc(C)c(Br)c(OC)n1)S(=O)(=O)c1ccc(C)cc1 | 0.0294
C=CCn1c(=O)c2c(C)c(C)sc2n2c(Nc3ccc(OC)cc3)nnc12 | active: -3.68
COc1ccc2c(c1)c(C(=O)CN1CCC(C(N)=O)CC1)c(C)n2C | -0.152
Cc1ccc(S(=O)(=O)NNC(=O)c2sc3nc(C)cc(C)c3c2-n2cccc2)cc1 | -0.555
COC(=O)c1ccc(Sc2ccc(Cl)cc2)c(N)c1 | 0.192
CCOC(=O)c1c(C)[nH]c(C(=O)CSc2nnnn2-c2ccc(C)cc2)c1C | -1.6
O=C(COC(=O)CC(NC(=O)c1ccccc1Cl)c1ccccc1)Nc1cccc(F)c1 (stereo unspecified) | 0.435
Cc1cc(OC(C)C(=O)N/N=C/CC(C)c2ccccc2)ccc1Cl (stereo unspecified) | 0.358
COc1ccc(S(=O)(=O)Nc2ccc3c(c2)OCCO3)cc1Cl | 0.438
O=S(=O)(NCc1ccc2c(c1)OCO2)c1ccc2c(c1)oc1ccccc12 | 0.0903
Cc1c(Cl)c(C(=O)NC2CCCC2)nn1C | -0.302
COc1ccccc1Oc1nc(-c2ccccc2)cc(C)c1S(C)(=O)=O | -0.257
CCCc1cc(-c2n[nH]c(=S)n2CC)c2ccccc2n1 | -0.443
CCCCn1c(=S)[nH]c2c(oc3ccc(Cl)cc32)c1=O | active: 13.1
COC(=O)CCCCC1SCC2NC(=O)NC21O (stereo unspecified) | 0.189
COC(=O)C1C(=O)NCC1c1ccc(C)cc1 (stereo unspecified) | 0.227
CCCCC(=O)NC(NC(=S)N1CCOCC1)C(Cl)(Cl)Cl (stereo unspecified) | 0.487
CCc1ccc(NC(=O)CCn2c(=O)oc3ccccc32)cc1 | 0.0251
O=C(CN1C(=O)c2cccc3cccc1c23)N1CCN(c2cccc(Cl)c2)CC1 | -0.225
Cc1ccc(-c2nc3ccccc3o2)cc1NC(=O)Cc1cccs1 | -0.149

Structure (SMILES) | z-score
O=C(NNC(=O)c1cc2cc3ccccc3nc2s1)c1ccc(F)cc1 | 0.133
CCCNc1c(NC(C)=O)c(=O)oc2ccccc12 | -0.104
O=S(=O)(c1ccc(F)cc1)N1CN(Cc2ccco2)c2nc3ccccc3nc21 | -1.23
CCc1nc2c(c(=O)c3ccccc3n2C)c(=O)n1-c1ccc(F)cc1 | -0.613
Cc1cc(-c2n[nH]c(=S)n2/N=C/c2cc([N+](=O)[O-])ccc2Cl)n[nH]1 | -0.544
Cc1ccc(-c2nn(-c3ccccc3)cc2/C=C/C(=O)Nc2nccs2)cc1 | -0.147
Cc1ccc(O)c(C(=O)c2coc(=N)c(C(=O)NC(C)C)c2)c1 | 0.409
O=C(CCc1ccccc1)Nc1ccc(N2CCOCC2)c(Cl)c1 | -0.292
O=C(CN(CC1CCCO1)C(=O)CCC(=O)Nc1ccccn1)NCc1ccccc1 (stereo unspecified) | -0.09
COc1ccc(C(c2c(NC(=O)c3ccccc3)sc(C)c2C)N2CCN(CCO)CC2)cc1 (stereo unspecified) | 0.286
Cc1ccccc1Nc1c(N)c(=O)oc2ccccc12 | -0.416
Cc1ccc(CO/N=C/C2=C(Cl)c3ccccc3CC2)cc1 | 0.558
CCCCN1C(=O)c2ccc(C(=O)Nc3ccc(C)c(S(=O)(=O)N(C)C)c3)cc2C1=O | 0.319
O=C1c2ccccc2C(Nc2ccc(F)cc2F)N1CCN1CCOCC1 (stereo unspecified) | -0.157
CCSc1nc2nc(C)cc(C)n2n1 | 0.725
CN1c2ccccc2C(C)(C)C12CCCC(=O)N2 (stereo unspecified) | -0.365
Cc1cccc(OCCOc2ccc(/C=N/NC(=O)Cc3nnc(N)s3)cc2)c1 | 0.371
CC(C)CNC(=O)c1ccccc1NC(=O)/C=C/c1cccc([N+](=O)[O-])c1 | 0.151
O=S(=O)(NCC(c1cccnc1)N1CCN(c2ccccc2F)CC1)c1cccs1 (stereo unspecified) | -0.0675
Cc1ccc(Cc2cnc(NC(=O)CN3CCOCC3)s2)cc1Cl | -0.317
O=C1C2C(C(=O)N1/N=C/c1ccco1)C1C=CC2C12CC2 (stereo unspecified) | -0.113
Cc1cc(=O)oc2cc(NC(=O)CCC(=O)O)ccc12 | -0.108
COc1cc2cc(C(c3nnnn3C3CCCC3)N3CCCCCC3)c(=O)[nH]c2cc1OC (stereo unspecified) | -0.601

Structure (SMILES) | z-score
CCOC(=O)C1CCCN(c2c(NCCN3CCCCC3C)c(=O)c2=O)C1 (stereo unspecified) | 0.424
O=C(/C=C/c1ccc(F)cc1)NCCc1ccc2c(c1)OCCO2 | -0.0556
Cc1cc(C)cc(NC(=O)CN2CCCN(S(=O)(=O)c3ccc(Br)s3)CC2)c1 | 0.0384
O=C(CSc1ncccn1)NCc1ccccc1Cl | 0.524
O=C(CSc1nc2cc3ccccc3cc2[nH]1)Nc1ccc(F)cc1 | -0.112
Cc1ccc(SCc2cc(=O)n3[nH]cnc3n2)cc1 | -0.616
CSc1nc(NC(C)C)nc(N2CCOCC2)n1 | 0.645
CCn1c(CSc2nc3ccccc3s2)n[nH]c1=S | 0.155
Cc1ccc(OCC(=O)Nc2cccc3c2CCCC3)cc1C | -0.385
COc1ccc(C(CNC(=O)C2CC(=O)N(Cc3ccc(C)cc3)C2)N(C)C)cc1 (stereo unspecified) | -0.529
CCOC(=O)N1CCC(N2C(=O)c3ccccc3C2Nc2ccccc2C)CC1 (stereo unspecified) | 2.74
Cc1ccc(/C=C(\C#N)c2nc3ccccc3[nH]2)s1 | -0.0719
O=C(Nc1ccc(N2CCN(c3ccc(O)cc3)CC2)cc1)Oc1ccccc1 | 0.0783
O=C(CSc1nnc(-c2ccccc2F)n1C1CC1)NC(=O)c1cccc([N+](=O)[O-])c1 | -0.757
Cn1c(CO)nc2cc(N)ccc21 | 0.285
CC(=O)CN1Cc2ccccc2/C1=N\C(=O)Nc1ccccc1 | active: 3.19
COc1ccccc1NC(=S)NCCN1CCOCC1 | 0.187
CCCn1c(SCC(=O)c2c[nH]c3ccccc23)nnc1-c1ccncc1 | -0.22
CCOC(=O)c1c(C)nc2c(c(SC)nn2-c2ccccc2)c1N | -0.334
Cc1ccc2cc(CCNC(=O)c3ccc(Br)o3)c(=O)[nH]c2c1 | -0.963
CC1C(c2ccccc2)N(C)C(c2ccccc2)C(C)C1(O)C#Cc1ccccc1 (stereo unspecified) | -0.0784
Cc1ccc(N2CCN(C(=O)c3ccccc3)CC2)c(C)c1 | -0.434
CCCOC(=O)C(C)n1c(-c2ccccc2)nc2ccccc2c1=O (stereo unspecified) | 0.0386

Structure (SMILES) | z-score
COc1ccc(C(=O)OCC(=O)NC(=O)CCSc2ccccc2)cc1 | 0.0536
C[C@@H](C(=O)OCC(=O)Nc1cc(S(=O)(=O)N2CCOCC2)ccc1Cl)N1C(=O)C2CCCCC2C1=O (stereo partly specified) | 0.333
CC(Oc1ccccc1)C(=O)Nc1ccccc1F (stereo unspecified) | -0.841
CC(NC(=O)OC(C)(C)C)C(=O)Oc1ccc2ccc(=O)oc2c1 (stereo unspecified) | -0.43
O=c1nc2ccccc2c2n1CC(CN1CCN(c3ccccc3F)CC1)N2 (stereo unspecified) | 0.222
CSCSC1=C(C#N)C(c2ccccc2Cl)C(C(C)=O)=C(C)N1 (stereo unspecified) | -2.68
CC(=O)N1CCN(c2ccccc2NC(=O)c2cc(Br)ccc2Cl)CC1 | 0.166
CC(C)(C)/C(O)=C/c1nc2ccccc2[nH]c1=O | -0.317
COC(=O)c1ccc(COc2cccc3c2CCN(Cc2cccc(C)c2)C3=O)o1 | -0.424
COc1ccc(NS(=O)(=O)c2cc(C)ccc2C)cc1 | -0.157
O=C(Nc1ccncc1)c1cccc(F)c1 | 0.415
CN(C)S(=O)(=O)c1ccc(C(=O)N2CCCC2c2nc3ccccc3s2)cc1 (stereo unspecified) | 0.13
N/C(Cc1ccc([N+](=O)[O-])cc1)=N\OC(=O)C(c1ccccc1)c1ccccc1 | -0.547
CCOC(=O)N1CCN(C(=O)C2CCCN(S(=O)(=O)c3ccc(C)cc3)C2)CC1 (stereo unspecified) | 0.279
O=S1(=O)NC(=NCc2ccccc2)c2ccccc21 | -0.152
OCC[n+]1ccc(/C=C/c2c[nH]c3ccccc23)cc1 | -0.621
Cc1ccc(C(=O)Nc2ccccc2Sc2ccccc2)cc1 | -0.104
O=C(CN1CCC(n2nnc3ccccc32)CC1)Nc1ccc2c(c1)CCC2 | -0.702
CC(/C=N/NC(=O)c1c(Br)cnn1C)=C\c1ccccc1 | active: 3.16
COc1ccc(C(NC(=O)c2ccccc2F)NC(=O)c2ccccc2F)cc1 | -0.342
O=C(O)/C=C/C(=O)Nc1cccc(C(F)(F)F)c1 | -0.096
C/C(Cl)=C/CSc1nn2c(=O)c3ccccc3nc2s1 | 0.0556
O=C(NCCO)/C(=C\c1ccc2c(c1)OCO2)NC(=O)c1ccc(Br)cc1 | -0.293

Structure (SMILES) | z-score
O=C1c2ccccc2C(=O)C1c1ccnc2ccccc12 | -0.187
CCC(CC)c1nnc(NC(=O)c2ccc(N3CCCC3=O)cc2)s1 | 0.191
CCCC(=O)Nc1ccc(S(=O)(=O)N2CCOCC2)cc1 | 0.133
Cc1sc2nc(C3CC3)nc(SCC(=O)NCc3ccco3)c2c1C | 0.399
O=C1CCc2cc(S(=O)(=O)N3CCCC3C(=O)NC3CCCCCCC3)ccc2N1 (stereo unspecified) | -0.122
CCC(C(=O)Nc1cnccn1)c1ccccc1 (stereo unspecified) | 0.435
Cc1ccc(CNC(=O)C(C)OC(=O)c2cccs2)cc1 (stereo unspecified) | -0.177
CCCN(CCC)C(=O)c1cc(-c2ccc3c(c2)OCO3)nc2ccccc12 | -0.399
CC(C)OC(=O)[C@H]1[C@H](c2ccc(Cl)cc2)[C@@](C#N)(C(N)=O)[C@@H]2C=CC(C(N)=O)=CN21 | 0.0606
CN1CCN(c2ccccc2NC(=O)c2cc(Br)ccc2Cl)CC1 | 0.944
COc1ccc2c(=O)cc(-c3ccccc3)n(C)c2c1 | -0.368
Cc1c(N2C(=O)c3ccc4c5c(ccc(c35)C2=O)CC4)c(=O)n(-c2ccccc2)n1C | -0.172
CCOC(=O)N1CCN(C(=O)C2CCC(=O)N2C(C)C)CC1 (stereo unspecified) | -0.285
CN(C)c1ccc(/C=N/NC(=O)c2ccco2)cc1 | 0.819
O=C(O)Cn1cc(C(=O)c2ccco2)c2ccccc21 | -0.378
COc1ccc(CCNC(=O)CC2Nc3ccccc3NC2=O)cc1OC (stereo unspecified) | -0.291
Cc1ccccc1N1C(=O)C2C3CC(=O)C(c4ccccc43)C2C1=O (stereo unspecified) | -0.248
CCNC(=O)OCC(CC)NC(=O)OCC(C)C (stereo unspecified) | -0.305
CCOc1ncccc1C(=O)N(C)CC(=O)Nc1ccc(F)cc1 | 0.103
